Measured values as given in PubChem BioAssay AID651820 (National Center for Advancing Translational Sciences (NCATS), 2012).
About 12,000 (3.5%) of roughly 340,000 compounds were called active. This list was built around the results that the source calls inconclusive (neither active nor inactive); the mix of calls is not that of the screen. Calls come from the whole dose curve; as a rule, active = well fitted inhibition curve with a large enough effect; inconclusive = small, poorly fitted or top-dose-only effect, or another doubt; inactive = no such curve, though single readings can be large or run the other way. Potencies of inconclusive entries are left out as doubtful fits.

assay: qHTS Assay for Inhibitors of Hepatitis C Virus (HCV); details: Huh7.5.1 HCVcc-Cre (HCVcc is cell-culture hepatitis C virus) infection, luciferase reporter, 44 h; series mostly up to 41.8 µM
How it was run: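 Cells (1,000/well) were plated 4 h before compound, then infected with HCVcc-Cre virus (~0.5 moi). After 44 h further culture, infection was read as luciferase luminescence following a 15 min substrate incubation at room temperature.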
Potency is the fitted concentration of half-maximal effect; tags give direction and shape of the fitted curve.

Which Potency does the source give for `CCOC(=O)c1oc2ccc(S(=O)(=O)n3nc(-c4cc(OC)c(OC)c(OC)c4)cc3N)cc2c1C` here?
Its Potency is “inactive”.

For `O=C(Nc1ccc(N2CCOCC2)cc1)C1CCCCC1`, which Potency is on record?
Its Potency is “inactive”.

With `Cc1cccc(Nc2nc3c(S(=O)(=O)c4ccccc4)nnn3c3ccccc23)c1` as the molecule, how does the Potency read?
Its Potency is inconclusive [inhibitor, partial curve].

With `CN(C)S(=O)(=O)c1ccc(N2CCCC2)c(C(=O)NNC(=O)c2ccc(Br)cc2)c1` as the molecule, how does the Potency read?
The Potency was “inactive”.

With `CCOc1ccc2nnc(-c3ccc(Br)cc3)n2n1` as the molecule, how does the Potency read?
Its Potency is inconclusive [inhibitor, single point].

Which Potency does the source give for `C[C@]12c3[nH]c4ccc(Cl)cc4c3CCN1C(=O)[C@@H](CC(=O)NCC13CC4CC(CC(C4)C1)C3)C[C@@H]2C(=O)N1CCOCC1` here?
The Potency was inconclusive [inhibitor, single point].

For `CC1CCCCC1NC(=O)C(C)N1C(=O)c2ccccc2C1=O` (stereo unspecified), which Potency is on record?
The Potency was inconclusive [inhibitor, single point].

Which Potency does the source give for `CCC(C)(C)c1ccc(OCC(=O)N(C)C)c(C(C)(C)CC)c1` here?
The Potency was inconclusive [inhibitor, single point].

Which Potency does the source give for `Cc1[nH]ncc1-c1ccccc1Cl` here?
Its Potency is inconclusive [inhibitor, single point].

For `Cc1cc(C)c2c(CC(=O)N3CCCC3)coc2c1`, which Potency is on record?
The Potency was “inactive”.

For `CC(=O)c1ccc2noc(-c3ccc(F)cc3)c2c1`, which Potency is on record?
The Potency was inconclusive [inhibitor, single point].

Which Potency does the source give for `COc1ccccc1NS(=O)(=O)c1ccc(C(=O)NCC(c2ccco2)N(C)C)cc1` (stereo unspecified) here?
The Potency was inconclusive [inhibitor, single point].

With `N=c1n(CC(=O)c2ccc([N+](=O)[O-])cc2)c2ccccc2n1Cc1ccccc1` as the molecule, how does the Potency read?
The Potency was inconclusive [inhibitor, single point].

Which Potency does the source give for `Cc1ccc(CNC(=O)Nc2ccc(F)cc2F)n1C` here?
Its Potency is inconclusive [inhibitor, single point].

With `CC(=O)Cc1nsc(NC(=O)c2cc(-c3ccccc3Cl)oc2C)n1` as the molecule, how does the Potency read?
The Potency was “inactive”.

For `CS(=O)(=O)c1ccc(Cl)c(NC(=O)Cc2c(Cl)cccc2Cl)c1`, which Potency is on record?
The Potency was inconclusive [inhibitor, single point].

For `COc1ccc(CNC(=O)c2cc(-c3cc(C)cc(C)c3O)n[nH]2)cc1`, which Potency is on record?
Its Potency is inconclusive [inhibitor, partial curve].

Which Potency does the source give for `CC(C)OCCCNC(=O)c1cc(Sc2ccc(F)cc2)nc2ccccc12` here?
Its Potency is inconclusive [inhibitor, single point].

For `Cc1ccc(-n2c(=O)[nH]c3c(C(N)=O)nc(CC(C)C)nc32)cc1`, which Potency is on record?
Its Potency is inconclusive [inhibitor, single point].

With `O=C(Nc1ccccc1)c1ccccc1C(=O)N1CCCCC1` as the molecule, how does the Potency read?
The Potency was “inactive”.

Which Potency does the source give for `O=C(CSc1cccc[n+]1[O-])Nc1ccccc1Oc1ccccc1` here?
Its Potency is “inactive”.

With `CCC(=O)Nc1cccc(C2=NOC3(C2)C[C@H](C(N)=O)N(C(=O)c2ccc(Cl)cc2)C3)c1` (stereo partly specified) as the molecule, how does the Potency read?
The Potency was inconclusive [inhibitor, single point].

For `Cc1ncc(CN2CCCC(C(=O)c3sccc3C)C2)s1` (stereo unspecified), which Potency is on record?
The Potency was “inactive”.

With `O=C(N/N=C/c1cccn1-c1ccc([N+](=O)[O-])cc1)C(O)c1ccccc1` (stereo unspecified) as the molecule, how does the Potency read?
Its Potency is inconclusive [inhibitor, full curve, poor fit].

For `Cc1ccc(-c2cc(-c3ccccc3)cc(-c3ccccc3)[n+]2-c2ccc(C(=O)O)cc2)cc1`, which Potency is on record?
Its Potency is “inactive”.

Which Potency does the source give for `Cc1cc(NCCCn2ccnc2)n2nc(C)c(-c3ccc(Cl)cc3)c2n1` here?
Its Potency is active: 10 µM.

Which Potency does the source give for `CN1CCN(c2ccccc2NC(=O)c2ccc(OCc3ccccc3)cc2)CC1` here?
Its Potency is active: 11.2 µM.

For `CCn1c2ccccc2c2c3ncc4cccn4c3ccc21`, which Potency is on record?
Its Potency is active: 11.2 µM.

With `CCCCCCCCC(=O)NC(NC(=S)N1CCOCC1)C(Cl)(Cl)Cl` (stereo unspecified) as the molecule, how does the Potency read?
Its Potency is inconclusive [inhibitor, full curve].

Which Potency does the source give for `CC(C)[C@H](NC(=O)N1c2ccccc2NC(=O)[C@@H]1C(C)C)C(=O)N[C@H](Cc1ccccc1)C(=O)O` here?
The Potency was “inactive”.

For `COc1cc(OC)c(OC)cc1CN1CCN(C(=O)COc2ccc3ccccc3c2)CC1`, which Potency is on record?
The Potency was inconclusive [inhibitor, single point].

For `c1ccc(NN=C2c3ccccc3-c3ccccc32)cc1`, which Potency is on record?
The Potency was inconclusive [inhibitor, single point].

With `Cc1ccccc1OCCC(=O)OCC(=O)Nc1c(C)nn(-c2ccccc2)c1C` as the molecule, how does the Potency read?
The Potency was inconclusive [inhibitor, partial curve].

With `O=C(Nc1cccc2ccccc12)c1nn(C23CC4CC(CC(C4)C2)C3)cc1Br` as the molecule, how does the Potency read?
The Potency was inconclusive [inhibitor, single point].

Which Potency does the source give for `O=[N+]([O-])c1ccc(N2CCCCC2)cc1N1CCOCC1` here?
The Potency was “inactive”.

Which Potency does the source give for `Cc1cc(=O)oc(C)c1C(=O)N1CCN(C(c2ccccc2)c2ccccc2)CC1` here?
The Potency was inconclusive [inhibitor, partial curve].

Which Potency does the source give for `CCCCn1nnnc1SCC(=O)Nc1sc2c(c1C#N)CCCC2` here?
The Potency was inconclusive [inhibitor, partial curve].

With `CCCN(Cc1cc2ccc(C)cc2[nH]c1=O)C(=O)c1ccccn1` as the molecule, how does the Potency read?
Its Potency is inconclusive [inhibitor, single point].

For `CN1CC=C(/C=C/c2ccc(-c3ccccc3)cc2)CC1`, which Potency is on record?
Its Potency is inconclusive [inhibitor, single point].

Which Potency does the source give for `COc1ccc(-c2noc(C3CCCN(C(=O)c4ccccc4OC)C3)n2)cc1` (stereo unspecified) here?
The Potency was inconclusive [inhibitor, single point].

With `Cc1ccc(N(C)C(=O)N2CCN(S(=O)(=O)c3ccc(C)cc3)CC2)cc1` as the molecule, how does the Potency read?
The Potency was inconclusive [inhibitor, single point].

Which Potency does the source give for `Clc1ccc2ccc3cccnc3c2n1` here?
Its Potency is inconclusive [inhibitor, single point].

With `O=[N+]([O-])c1cc(S(=O)(=O)c2ccc(O)c([N+](=O)[O-])c2)ccc1O` as the molecule, how does the Potency read?
The Potency was “inactive”.

For `COc1ccccc1N(Cc1ccccc1)S(=O)(=O)c1cccc(C(=O)NC2CC(C)(C)NC(C)(C)C2)c1`, which Potency is on record?
Its Potency is active: 2.24 µM.

For `Oc1ccccc1/C=N/Nc1cc(N2CCCC2)nc(N2CCCC2)n1`, which Potency is on record?
The Potency was inconclusive [inhibitor, partial curve].

For `CCN(CCCNC(=O)C1CCN(S(=O)(=O)c2cccc3nonc23)CC1)Cc1ccccc1`, which Potency is on record?
Its Potency is inconclusive [inhibitor, single point].

Which Potency does the source give for `CC(=O)NCCc1nc2ccccc2n1Cc1ccccc1` here?
The Potency was inconclusive [inhibitor, single point].

Which Potency does the source give for `CCOC(=O)c1cc(C(C)C)sc1NC(=O)COC(=O)CCS(=O)(=O)c1ccccc1` here?
Its Potency is inconclusive [inhibitor, partial curve].

With `CCN(CC)S(=O)(=O)c1cccc(C(=O)Nc2ccc(C#N)cc2)c1` as the molecule, how does the Potency read?
Its Potency is inconclusive [inhibitor, full curve].

For `CCN(C(=O)CSc1cc(C)c2ccccc2n1)C1CCS(=O)(=O)C1` (stereo unspecified), which Potency is on record?
Its Potency is “inactive”.

Which Potency does the source give for `COc1ccccc1N1CCN(C2CCCN(C(=O)CCn3cncn3)C2)CC1` (stereo unspecified) here?
Its Potency is “inactive”.

With `COc1ccc(C(=O)CCNc2ccc(F)cc2)cc1` as the molecule, how does the Potency read?
Its Potency is inconclusive [inhibitor, partial curve].

For `Cc1ccc2nc(Cl)c3nnnn3c2c1`, which Potency is on record?
The Potency was inconclusive [inhibitor, single point].

With `COc1ccccc1OCC(O)Cn1c(=N)n(CCN2CCCCC2)c2ccccc21` (stereo unspecified) as the molecule, how does the Potency read?
The Potency was active: 2.51 µM.

With `COc1ccc(/C=N/Nc2ncc(C(F)(F)F)cc2Cl)cc1OC` as the molecule, how does the Potency read?
The Potency was inconclusive [inhibitor, single point].

Which Potency does the source give for `O=S(=O)(c1ccc(Br)cc1Cl)N1CCCN(c2ccc(C(F)(F)F)cn2)CC1` here?
The Potency was inconclusive [inhibitor, single point].

For `Cc1cccc(-n2cc(-c3ccccc3)c3c(NN4CCOCC4)ncnc32)c1`, which Potency is on record?
Its Potency is “inactive”.

For `CCNc1cc(N2CCOCC2)nc(SC)n1`, which Potency is on record?
Its Potency is inconclusive [inhibitor, partial curve].

With `CCOc1ccc(NC(=O)Nc2cccn(Cc3ccccc3)c2=O)cc1` as the molecule, how does the Potency read?
The Potency was active: 10 µM.

With `Cc1ccc(S(=O)(=O)N2CCCCC2C)cc1[N+](=O)[O-]` (stereo unspecified) as the molecule, how does the Potency read?
The Potency was “inactive”.

With `COC(=O)c1ccc(NC(=O)c2cccc(C)c2[N+](=O)[O-])cc1` as the molecule, how does the Potency read?
The Potency was “inactive”.

Which Potency does the source give for `Cc1cccc(N2CCN(Cc3ccc(Br)o3)CC2)c1C` here?
The Potency was inconclusive [inhibitor, single point].

Which Potency does the source give for `CCOc1ccc(NC(=O)CN(C)C(=O)c2c(C)nn(Cc3ccccc3Cl)c2C)cc1OCC` here?
Its Potency is “inactive”.

With `N#Cc1nc(Cc2cccc3ccccc23)oc1NCCN1CCCCC1` as the molecule, how does the Potency read?
The Potency was active: 11.2 µM.

With `COc1cc(CNc2ccc(N3CCCC3)cc2)ccc1OCc1ccccc1F` as the molecule, how does the Potency read?
Its Potency is inconclusive [inhibitor, full curve, poor fit].

Which Potency does the source give for `O=[N+]([O-])c1cccc(-c2csc(N/N=C/c3cccc(O)c3)n2)c1` here?
The Potency was inconclusive [inhibitor, partial curve, poor fit].

With `CCOc1cc(N2CCOCC2)c(OCC)cc1NC(=O)COc1cccc(CC)c1` as the molecule, how does the Potency read?
The Potency was active: 10 µM.

Which Potency does the source give for `COc1ccc(-c2csc(NC(=O)c3ccc(C(C)(C)C)cc3)c2C(=O)O)cc1` here?
The Potency was inconclusive [inhibitor, single point].

For `CCN(CC(=O)Nc1ccc2c(c1)OCCO2)C(=O)/C=C/c1ccc([N+](=O)[O-])cc1`, which Potency is on record?
Its Potency is inconclusive [inhibitor, partial curve, poor fit].

For `COCCCNCCOCCOc1ccccc1-c1ccccc1`, which Potency is on record?
Its Potency is active: 7.94 µM.

With `O=C(C1=C[C@H](c2ccc(Br)cc2)C[C@H](OCc2ccc(CO)cc2)O1)N1CCN(Cc2ccc3c(c2)OCO3)CC1` as the molecule, how does the Potency read?
The Potency was inconclusive [inhibitor, partial curve].
